Laboratory results taken from PubChem BioAssay AID1240 (Sanford-Burnham Center for Chemical Genomics, 2008).
Screen size: about 50,000 compounds; about 800 (1.6%) showed an effect of 50% or more. This is one part of the list.

biological target: Bcl-2-like protein 10 (Homo sapiens) (UniProt Q9HD36); experiment: Phenotype converters, Bcl-B/TR3 peptide binding displacement, primary biochemical FP (AID 1240); details: GST-Bcl-B / FITC-TR3 peptide fluorescence polarization; stronger effect = higher value; compound at 3.75 mg/L;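 further: 0% = Bcl-B with tracer peptide and DMSO and 100% = tracer peptide lacking Bcl-B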
Chain of UniProt Q9HD36 (Q9HD36 whole entry, looked up): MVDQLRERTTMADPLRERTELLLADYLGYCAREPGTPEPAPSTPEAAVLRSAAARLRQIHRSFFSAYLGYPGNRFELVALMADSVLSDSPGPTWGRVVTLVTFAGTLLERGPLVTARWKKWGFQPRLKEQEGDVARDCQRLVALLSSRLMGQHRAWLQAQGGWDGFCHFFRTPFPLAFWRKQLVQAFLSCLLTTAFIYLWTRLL

Compared with CC(C)=C1C2C=CC1C1C(=O)N(c3ccc(Br)cc3[N+](=O)[O-])C(=O)C21 (stereo not given), O=C(COc1ccccc1[N+](=O)[O-])N=Nc1c(O)[nH]c2ccc(Br)cc12 is lower in displacement: 14.9% for the first, 7.6% for the second.

Going from CC(c1ccccc1)C1CC(=O)N(c2ccc([N+](=O)[O-])cc2)C1=O (stereo not given) to O=C1C2=C(NC(=S)NC2c2ccc([N+](=O)[O-])cc2)c2ccccc21 (stereo not given), the displacement falls from 1.7% to -6.2%.

Going from O=C1c2ccccc2C(=O)N1CCCCN(C(=O)c1ccc(Br)cc1)c1ccc(F)cc1F to O=C(CCN1C(=O)c2ccccc2C1=O)Nc1ccc(I)cc1, the displacement rises from 1.2% to 2.3%.

First: CC(OCc1ccccc1)C(NC(=O)OC(C)(C)C)C(=O)Nc1nccs1 (stereo not given)
Second: COC(=O)c1c(NC(=O)Cc2ccccc2)sc(C)c1C
The displacement of the first is higher: 2.2% for the first, -14.8% for the second.

Compared with C/C(=N\N1CCN(c2ccccc2)CC1)c1ccco1, O=C(N=c1scc(-c2ccccc2)n1-c1ccccc1)c1ccco1 is lower in displacement: 2.5% for the first, -6.2% for the second.

First: CN(C(=O)COc1ccc(F)cc1)C1CCS(=O)(=O)C1 (stereo not given)
Second: CCOc1ccc(N(CC(=O)NCC2CCCO2)S(C)(=O)=O)cc1 (stereo not given)
The displacement of the first is lower: 9.1% for the first, 13.1% for the second.

First: O=C(c1ccc(Cl)cc1)N1N=C(c2ccc(F)cc2)CC1(O)C(F)(F)F (stereo not given)
Second: CC(C)(C)c1ccc(-c2cc(-c3cc(Cl)ccc3O)[nH]n2)cc1
The displacement of the first is higher: 0.8% for the first, 0.6% for the second.

Compared with C=CCN1C(=O)/C(=C/c2ccc(I)o2)SC1=S, O=C1/C(=C/c2cccc(Br)c2)SC(=S)N1Cc1ccco1 is lower in displacement: 13.6% for the first, 3.6% for the second.

First: O=C(c1cc([N+](=O)[O-])ccc1Cl)N1CCN(C(c2ccccc2)c2ccccc2)CC1
Second: O=C(O)c1ccccc1C(=O)c1cc([N+](=O)[O-])ccc1Cl
The displacement of the first is higher: 5.2% for the first, -1.8% for the second.

First: CCn1c2ccc(C(C)=O)cc2c2cc(C(C)=O)ccc21
Second: COc1ccc(C(C)=O)cc1CSc1cc(C)c2ccccc2n1
The displacement of the first is higher: 12.5% for the first, 0.4% for the second.

Compared with O=C(O)C1CC(O)CN1C(=O)Oc1ccccc1 (stereo not given), CC1CN(C)C(C)CC1OC(=O)c1ccccc1Cl (stereo not given) is higher in displacement: 1.1% for the first, 7% for the second.

Going from O=C(NN1C(=O)/C(=C/c2cccc(O)c2)SC1=S)c1ccccc1O to COc1cc(/C=C2\SC(=S)N(C)C2=O)ccc1OC(=O)c1sc2cc(C)ccc2c1Cl, the displacement falls from 16.2% to 5.7%.

Going from COc1ccc(NC(=O)c2ccccc2N)cc1 to COc1ccc(NC(=O)COC(=O)C(CCSC)NC(=O)c2ccccc2)cc1 (stereo not given), the displacement rises from -9.6% to 3.9%.

Going from CC(C)(C)OC(=O)CC(O)(c1ccccc1)C(F)(F)F (stereo not given) to CN(C)CCCNC(=O)c1ccccc1Cl, the displacement rises from 0.7% to 11.1%.

Going from COc1ccc(CCNC(=O)CCc2ccccc2O)cc1OC to COc1ccc(-c2cc(-c3cc(Cl)ccc3O)[nH]n2)cc1OC, the displacement rises from -6.6% to 9.9%.

First: C=CCn1cc(C)c(=O)n(CC(C)C)c1=O
Second: C=CCn1c(SC)nc(O)c(Cc2ccccc2)c1=O
The displacement of the first is higher: 8% for the first, 1.7% for the second.

Going from Cc1ccc(OCCn2cc(C=C3C(=O)NC(=O)NC3=O)c3ccccc32)cc1C to O=C1NC(=O)N(c2ccc(Br)cc2)C(=O)/C1=C/c1ccc(-c2cccc([N+](=O)[O-])c2)o1, the displacement rises from 79.3% to 138%.

First: COc1ccc(/C=C/C(=O)Nc2nc(-c3ccccc3)cs2)cc1S(=O)(=O)N1CCCCC1
Second: O=C(O)c1ccc(NC2=C(N3CCCCC3)C(=O)c3ccccc3C2=O)cc1
The displacement of the first is lower: -0.4% for the first, 5.7% for the second.

Compared with COC(=O)c1cc(NC(=O)c2cccc3c(Br)cccc23)cc(C(=O)OC)c1, CCCCOc1ccc(C(=O)Nc2cccc(OC)c2)cc1 is lower in displacement: 13.9% for the first, 2.4% for the second.

Compared with O=C(/C=C/c1ccccc1)NC(=S)Nc1cc(Cl)ccc1Cl, CC(=O)Nc1ccccc1NC(=O)COc1ccc(Cl)cc1C is lower in displacement: 9.4% for the first, -4.5% for the second.

Going from COc1cc(OC)c(OC)cc1CN1CCN(Cc2cccc(Br)c2)CC1 to COc1ccc(OC)c(N2C(=O)c3ccc(OC)c(OC)c3C2=O)c1, the displacement falls from -0.3% to -13.4%.

Compared with Cc1[nH]nc2c1C(c1cc([N+](=O)[O-])ccc1O)C(C#N)=C(N)O2 (stereo not given), O=C1NC(=Nc2cccc(Cl)c2Cl)S/C1=C\c1cccc([N+](=O)[O-])c1 is lower in displacement: -3.3% for the first, -3.6% for the second.

Compared with O=C(COc1ccccc1Cl)Nc1c[nH]c(=O)[nH]c1=O, COc1ccc(CCN=Cc2c(O)[nH]c(=O)[nH]c2=O)cc1 is lower in displacement: 9.6% for the first, -2.3% for the second.

Compared with CN1CCN(C(=O)c2cc(-c3ccc(Cl)c(Cl)c3)nc3ccccc23)CC1, O=C(N=Nc1c(O)n(CN2CCCC2)c2ccccc12)c1ccncc1 is lower in displacement: -5.5% for the first, -6.2% for the second.

Compared with COc1ccc(C(=O)CC(c2ccccc2)S(=O)(=O)c2ccccc2)cc1 (stereo not given), CC(C)COc1ccc(C(=O)Nc2ccc(-c3nc4ccccc4o3)cc2)cc1 is higher in displacement: -0.9% for the first, 10% for the second.

First: O=C(Nc1cccc2ccccc12)C(=O)NC1CCCCC1
Second: COc1ccc(NC(=O)C(=O)NC2CC2)cc1
The displacement of the first is higher: 8.2% for the first, 6.6% for the second.

Compared with COc1cccc(OCCNC(=O)Nc2cc(F)c(F)cc2Cl)c1, C=COCCNC(=O)C(=O)Nc1ccccc1OCC is higher in displacement: -20.1% for the first, 0.5% for the second.

Compared with Cc1nc2cc(N=Cc3ccc(N(C)C)cc3)ccc2n1Cc1ccccc1, COc1ccc(/C=N/NC(=O)c2cc(-c3ccc4ccccc4c3)n[nH]2)cc1O is lower in displacement: 6.3% for the first, -10.8% for the second.

Going from COc1cccc(-c2csc(/C(C#N)=C/c3sccc3C)n2)c1 to COc1cc(/C=C2/N=C(c3ccccc3)OC2=O)cc(Cl)c1OC(C)=O, the displacement rises from -8.9% to 1.8%.

Going from N#Cc1c(NC(=O)c2ccc(S(=O)(=O)c3ccccc3)cc2)sc2c1CCCC2 to Cc1cccc(C(C)C)c1NC(=O)c1cc2ccccc2oc1=O, the displacement falls from 83.9% to 12.3%.

Going from O=C(CCCN1C(=O)/C(=C\c2cccs2)SC1=S)Nc1cccnc1 to N=c1sc(Cc2ccccc2Cl)cn1CC(=O)c1ccccc1, the displacement rises from -0.9% to 9.5%.

First: COc1ccc(/C=N/Nc2nc(N3CCCC3)nc(N3CCCC3)n2)c(OC)c1
Second: COc1ccccc1/C=C1/C(C)=C(C#N)c2nc(N)c(C#N)c(C)c21
The displacement of the first is higher: -0.4% for the first, -0.7% for the second.

First: COc1cc(N2C(=O)NC(=O)/C(=C\c3cc(I)c(O)c(OC)c3)C2=O)c(OC)cc1Cl
Second: CCCCOc1ccc(Cc2c(O)nc(SC)[nH]c2=O)cc1
The displacement of the first is lower: 1.6% for the first, 9.1% for the second.

First: Cc1ccc(CCCCCCCCCCCC(=O)N2CCOCC2)cc1
Second: CCCCOc1ccc(S(=O)(=O)n2cnc3ccccc32)cc1
The displacement of the first is lower: -3.7% for the first, 16.1% for the second.

First: CN(C)C=NC(=O)/C(C#N)=C1\CCc2ccccc2N1
Second: CC(=O)N(c1ccccc1)C1CC(C)N(C(=O)c2cccs2)c2ccccc21 (stereo not given)
The displacement of the first is higher: 19.9% for the first, -5.4% for the second.
